# Out of some 350,000 compounds screened, about 9,900 (2.8%) were called active. This list was built around the results that the source calls inconclusive (neither active nor inactive); the mix of calls is not that of the screen. The call rests on the fitted dose curve; in most records, active means well fitted activation curve with a large enough effect; inconclusive means small, poorly fitted or top-dose-only effect; inactive means no such curve, though single readings can be large or run the other way. Potencies of inconclusive entries are left out as doubtful fits.
# Test: A quantitative high throughput screen for small molecules that induce DNA re-replication in MCF 10a normal breast cells. Further: nearly all actives have a fitted effect of over 50% in size. On activity, positive = re-replication: % of control where 0% means no effect.
# Conditions: MCF 10A DNA re-replication, Hoechst nuclear intensity, 48 h; activity, positive = re-replication: at 46.1 µM (top of the series)
# Potency means the concentration at half of the fitted maximal effect; tags describe the fitted curve by direction and shape.
Compound,Potency,"activity, positive = re-replication"
O=c1c2ccccc2oc2cc(C#Cc3ccccn3)ccc12,"inconclusive [activator, single point]",–
COc1ccccc1N1CCN(Cc2nc(N)nc(Nc3ccc(C)c(Cl)c3)n2)CC1,"inconclusive [activator, single point]",–
O=C(CNC(=O)c1cccc(F)c1)N/N=C/c1ccc([N+](=O)[O-])s1,"inconclusive [activator, single point]",–
Cc1ccnc(Nc2nc(-c3ccc(O)c(O)c3)cs2)c1,"inconclusive [activator, single point]",–
O=C(CC1NCCc2ccccc21)Nc1ccc(Oc2ccccc2)cc1 (stereo not given),"inconclusive [activator, partial curve, poor fit]",–
Cc1ccc(SCCC(=O)OC(C)C(=O)Nc2ccccc2)cc1 (stereo not given),"inconclusive [activator, single point]",–
CCOC(=O)C1(CCOC)CCN(Cc2cnc(-c3cccc(C)c3)nc2)CC1,"inconclusive [activator, partial curve, poor fit]",–
O=C(CCC(=O)Nc1ccccc1)N/N=C/c1cccnc1,–,inactive: 2.31%
CC1CCc2c(c3ccccc3n2C(=O)CCl)C1 (stereo not given),active: 18.4 µM,–
Cc1ccccc1OCCC(=O)OCC(=O)NC1CCS(=O)(=O)C1 (stereo not given),–,inactive: -3.93%
O=C1N/C(=C\c2ccc(O)cc2)C(=O)c2ccccc21,active: 3.16 µM,–
CCOc1ccccc1OCc1nn2c(-c3ccc(C)cc3)nnc2s1,"inconclusive [activator, full curve, poor fit]",–
CCN(CC)c1ccc(N)cc1,"inconclusive [activator, single point]",–
O=C(Cc1cccc2ccccc12)Nc1ccccc1,–,inactive: 7.72%
CCCCCCC(C)OC(=O)c1ccccc1C(=O)O (stereo not given),–,inactive: 0.521%
CCc1ccc(-c2cc3c(=O)n(CC(=O)NCCCN4CCN(CC)CC4)nc(C)n3n2)cc1,"inconclusive [activator, partial curve]",–
CC(OC(=O)c1cc(Br)ccc1O)C(=O)Nc1ccc(S(=O)(=O)N2CCCC2)cc1 (stereo not given),"inconclusive [activator, partial curve]",–
CCN1CCN(C(=O)c2c(-c3ccccc3)noc2C)CC1,–,inactive: -0.382%
Cc1cc(NC(=O)CN2CCC(n3nnc4cc(C(F)(F)F)ccc43)CC2)no1,"inconclusive [activator, partial curve, poor fit]",–
CCN(CC)S(=O)(=O)c1ccc(N2CCCC2)c(NC(=O)Cc2ccc(OC)cc2)c1,"inconclusive [activator, full curve, poor fit]",–
CCN(CC)CCCNc1oc(-c2cccc(Cl)c2)nc1C#N,"inconclusive [activator, full curve]",–
CCC1=NC(c2ccccc2Cl)N(O)C1(C)C (stereo not given),"inconclusive [activator, partial curve, poor fit]",–
Cc1cc(C)nc(N2CCCC(C(=O)NCC(c3ccccc3)c3ccccc3)C2)n1 (stereo not given),"inconclusive [activator, partial curve, poor fit]",–

Compound,Potency,"activity, positive = re-replication"
O=C(OCc1ccc(F)cc1)c1cc(S(=O)(=O)N2CCCCC2)ccc1N1CCOCC1,"inconclusive [activator, single point]",–
Cc1sc2nc(CSc3cccc(C(F)(F)F)c3)[nH]c(=O)c2c1C,"inconclusive [activator, partial curve, poor fit]",–
CC(CS(=O)(=O)c1ccc2c(c1)NC(=O)CS2)C(=O)NCc1ccccc1Cl (stereo not given),–,inactive: -1.18%
N#CCSc1nc2ccccc2c2nc3ccccc3n12,active: 9.2 µM,–
Cc1ccc(S(=O)(=O)N(C)C)cc1NC(=O)CSc1nc2ccccc2[nH]1,"inconclusive [activator, single point]",–
COc1cc(/C=C(\C#N)c2nc3ccccc3[nH]2)cc(Br)c1OCc1ccccc1,active: 18.4 µM,–
O=C1COc2ccc(C(=O)CCl)cc2N1,active: 20.6 µM,–
COc1ccc(-c2oc3cccnc3c2/C=C/c2ccc(OC)c(OC)c2)cc1,"inconclusive [activator, partial curve, poor fit]",–
CCCCN(CCCC)C(=O)C1(P(=O)(c2ccccc2)c2ccccc2)CCC1,"inconclusive [activator, single point]",–
CN1CCN(c2ccc(NC(=O)COc3ccc4ccccc4c3)cc2)CC1,active: 16.4 µM,–
CNC(=S)N/N=C/c1c(Cl)cccc1Cl,–,inactive: 8.21%
CCCS(=O)(=O)c1c(S(=O)(=O)CCC)c2ccc(C(C)=O)cn2c1C(=O)OC,"inconclusive [activator, full curve, poor fit]",–
CN1CCN(c2ccc(NC(=O)COc3ccccc3)cc2Cl)CC1,"inconclusive [activator, partial curve, poor fit]",–
CCN1C=C(Cc2cccs2)C2=C(C1)C(c1cccs1)C(C#N)=C(N)O2 (stereo not given),active: 20.6 µM,–
C=CCSc1nccc(-c2nn(-c3ccc(C)cc3)ccc2=O)n1,active: 8.2 µM,–
CCn1nc(NC(C)=O)c2cc3cccc(C)c3nc21,–,inactive: 2.62%
O=C(N/C=N/OCc1ccc(Cl)cc1Cl)NOCc1ncc(C(F)(F)F)cc1Cl,"inconclusive [activator, partial curve, poor fit]",–
Cc1cc(C)c(OCC(=O)Nc2ccccn2)c([N+](=O)[O-])c1,"inconclusive [activator, partial curve, poor fit]",–
Cc1ccc(/C=C2/Sc3ccccc3N(CC(=O)NCC3CCCO3)C2=O)cc1 (stereo not given),"inconclusive [activator, partial curve, poor fit]",–
CCN(CC(=O)Nc1ccc(NC(C)=O)cc1)C(=O)c1cccc(S(=O)(=O)N2c3ccccc3CC2C)c1 (stereo not given),–,inactive: -1.03%
COc1ccccc1N1CCN(C(=S)NC(=O)/C=C/c2ccccc2)CC1,–,inactive: 4.91%
CCN(CC)S(=O)(=O)c1cccc(NC(=O)c2ccc(S(=O)(=O)N3CCCC3)cc2)c1,"inconclusive [activator, full curve, poor fit]",–

# Reference: PubChem BioAssay AID624296 (National Center for Advancing Translational Sciences (NCATS), 2012)
